Laboratory results as given in paper PMC4336329 (PLoS ONE, 2015).
The whole screen tested about 310,000 compounds, of which about 14,000 (4.5%) showed an effect of 50% or more. Effects have a minus sign here. The list shows a part of the results.

What follows are compounds tested against human ether-à-go-go-related gene (hERG) potassium channel (human, UniProt Q12809) (assay: primary screen, population patch clamp on CHO cells stably expressing hERG).
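Also: peak tail current of the secondary pulse compared with the same well before compound.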

Chain of human ether-à-go-go-related gene (hERG) potassium channel (Q12809 whole entry, looked up): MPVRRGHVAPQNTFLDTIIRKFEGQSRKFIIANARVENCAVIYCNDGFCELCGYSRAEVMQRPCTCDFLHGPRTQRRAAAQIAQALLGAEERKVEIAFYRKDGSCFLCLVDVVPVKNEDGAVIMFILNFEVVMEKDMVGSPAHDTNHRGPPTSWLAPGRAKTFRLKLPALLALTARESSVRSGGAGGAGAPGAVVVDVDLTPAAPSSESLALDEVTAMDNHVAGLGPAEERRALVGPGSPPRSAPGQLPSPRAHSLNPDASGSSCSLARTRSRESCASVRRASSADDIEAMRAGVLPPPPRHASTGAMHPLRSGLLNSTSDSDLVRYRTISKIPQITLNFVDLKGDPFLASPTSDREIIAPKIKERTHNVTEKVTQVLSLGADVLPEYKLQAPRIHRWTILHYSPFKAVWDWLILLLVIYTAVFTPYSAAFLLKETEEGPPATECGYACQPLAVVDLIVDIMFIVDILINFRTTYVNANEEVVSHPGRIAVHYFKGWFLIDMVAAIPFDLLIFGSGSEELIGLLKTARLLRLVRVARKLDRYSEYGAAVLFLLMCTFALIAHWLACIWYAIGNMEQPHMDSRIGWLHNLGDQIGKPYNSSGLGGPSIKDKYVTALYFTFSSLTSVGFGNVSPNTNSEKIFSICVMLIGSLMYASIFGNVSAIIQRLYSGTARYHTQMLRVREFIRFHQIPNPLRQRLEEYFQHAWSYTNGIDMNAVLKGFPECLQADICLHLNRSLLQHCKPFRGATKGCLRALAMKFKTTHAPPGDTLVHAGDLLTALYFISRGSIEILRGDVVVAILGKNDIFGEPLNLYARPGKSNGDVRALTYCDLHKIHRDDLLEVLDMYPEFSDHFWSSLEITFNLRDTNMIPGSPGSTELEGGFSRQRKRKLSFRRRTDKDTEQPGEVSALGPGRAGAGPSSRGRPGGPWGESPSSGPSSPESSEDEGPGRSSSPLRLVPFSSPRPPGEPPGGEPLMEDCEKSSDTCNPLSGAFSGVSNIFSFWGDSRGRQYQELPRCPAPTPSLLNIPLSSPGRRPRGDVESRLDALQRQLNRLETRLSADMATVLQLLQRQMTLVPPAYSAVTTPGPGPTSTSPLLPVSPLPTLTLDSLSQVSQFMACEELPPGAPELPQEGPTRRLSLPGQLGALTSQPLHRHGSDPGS

| Compound | hERG current change (%, negative = inhibition) at 10uM |
| --- | --- |
| CCOc1ccc(S(=O)(=O)N2CCCCC2)cc1NC(=O)c1c(CC)noc1C | 11.8% |
| O=C(CCCN1C(=O)CCC1=O)Nc1cccc(C(F)(F)F)c1 | -0.677% |
| OCc1n[nH]c(CO)n1 | -26.6% |
| O=C(O)c1cnn2c1NC(c1ccc(F)cc1)CC2C(F)(F)F (stereo not shown) | -0.771% |
| COC(=O)c1cc(=O)n(CCc2ccc(OC)cc2)c(=Nc2ccc(F)c(Cl)c2)s1 | -1.4% |
| CCOP(=O)(OCC)C(NC(=O)c1ccccc1)=C(Cl)Cl | -4.88% |
| COc1cccc(OC)c1C1=NC(C)(C)CO1 | 17.8% |
| O=C(COC(=O)CNC(=O)c1ccc(Cl)cc1)Nc1ncc(C(F)(F)F)cc1Cl | -31.8% |
| O=C(Nc1nc2ccccc2[nH]1)c1cc2ccccc2o1 | 3.98% |
| O=[N+]([O-])c1ccc(CN2CCSCC2)cc1 | 15.5% |
| Cn1c(=O)n(Cc2ccccc2Br)c2ccccc21 | -10.3% |
| COc1ccc(CCC(C)NCC(C)c2ccccc2)cc1 (stereo not shown) | -48.3% |
| Br.Cc1nnc2n1N=C(c1ccccc1)CS2 | 7.6% |
| O=C(Nc1ccc2ncccc2c1)Nc1ccc2ncccc2c1 | 17.4% |
| O=C1/C(=C\c2cccnc2)CN(Cc2ccccc2)C/C1=C\c1cccnc1 | -29.4% |
| O=C(NC1CC1)C1=C[C@@H](c2ccc(Br)cc2)C[C@@H](OCc2ccc(CO)cc2)O1 | -56.4% |
| COc1ccc(S(=O)(=O)N(Cc2cccnc2)Cc2cc3ccccc3[nH]c2=O)cc1 | -18.6% |
| C=CCN(c1ccccc1)S(=O)(=O)c1cccc(C(=O)Nc2ccncc2)c1 | -36.1% |
| Cc1ccccc1C(=O)NCCCn1ccnc1 | 18.3% |
| CC(C)(C)c1ccc(/C=N/Nc2cccc(C(=O)O)c2)cc1 | 34% |
| CN(C)C(=O)N1CCNCC1.Cl | 12.8% |
| CC1CC(=O)Nc2ccccc2N1C(=O)Nc1ccc(F)cc1 (stereo not shown) | 12.1% |
| Cc1cc(C)n(-c2cc(N3CCN(S(=O)(=O)c4ccc5ccccc5c4)CC3)ccc2[N+](=O)[O-])n1 | -1.13% |

| Compound | hERG current change (%, negative = inhibition) at 10uM |
| --- | --- |
| COCCN(C(=O)c1ccco1)c1nnc(-c2ccc(OC)c(OC)c2)s1 | -0.243% |
| CCc1ccc(C(=O)c2cncc(Br)c2)cc1 | -18.3% |
| Cn1cc2cc(NC(N)=S)ccc2n1 | 5.63% |
| S=C1NC2=C(CCC/C2=C\c2ccccc2)C(c2ccccc2)N1 (stereo not shown) | 15.4% |
| COc1ccc(S(=O)(=O)Oc2ccc3ccccc3c2)cc1 | -5.54% |
| O=C(Nc1ccccc1C(F)(F)F)N1CCC(N2CCCCC2)CC1 | 1.05% |
| COc1ccc(NC(=O)N2CCN(c3ccc([N+](=O)[O-])cc3)CC2)cc1OC | -73.2% |
| Cc1nn(C(C)C(=O)Nc2ccc3c(c2)OCO3)c(C)c1[N+](=O)[O-] (stereo not shown) | -20.6% |
| Cc1ccc(Cl)c(OCC(=O)Nc2cccnc2)c1 | 8.07% |
| Cc1cc(CC(C)C)n(-c2nc3ccccc3c(=O)n2OCC(N)=O)n1 | -6.58% |
| COc1cc(/C=C/C(=O)O)cc(S(=O)(=O)NCC2CCCO2)c1OC (stereo not shown) | 5.22% |
| COc1ccc(NC(=O)COC(=O)CCCOc2ccc(Cl)cc2Cl)cc1Cl | 14.3% |
| CC(C)=CCN1CCN(CCC2=C(C)CCCC2(C)C)CC1CCO (stereo not shown) | -47.4% |
| COc1cccc(-n2c(Cc3cc(=O)[nH]c(=O)[nH]3)nnc2SCC(=O)NC2CCCC2)c1 | 8.82% |
| O=C(c1ccncc1)N1CCN(S(=O)(=O)c2cc(C(F)(F)F)cc(C(F)(F)F)c2)CC1 | -21.6% |
| CN(C)c1cc(N/N=C/c2ccccc2C(F)(F)F)nc(N(C)C)n1 | 2.18% |
| COc1cc(NC(=O)COC(=O)CO/N=C(\C)c2ccc3c(c2)OCO3)cc(OC)c1 | 14.6% |
| O=C(NCc1ccncc1)c1nc(-c2ccc(C(F)(F)F)cc2)no1 | -23% |
| C=CCn1cc(C(=O)OC)c(=O)c2cc(S(=O)(=O)N3CCC(C)CC3)ccc21 | -39% |
| CCCC(=O)C1=C(O)C(c2cccc(Oc3ccccc3)c2)CCC1=O (stereo not shown) | -7.79% |
| CC(=O)Nc1ccc(OC(=O)N2CCCCC2)cc1 | -1.39% |
| O=C(Nc1ccc(-c2nnn(CC(=O)N3CCN(C(=O)c4ccco4)CC3)n2)cc1)c1ccc(F)cc1 | 3.09% |
| Cc1cccc(CSC2=NCCN2C(=O)c2ccc(Br)o2)c1 | -4.26% |

| Compound | hERG current change (%, negative = inhibition) at 10uM |
| --- | --- |
| COC(=O)C(C)(C)NC(=O)c1cccs1 | 5.47% |
| CC1CCC(N2CCN(S(C)(=O)=O)CC2)CC1.O=C(O)C(=O)O (stereo not shown) | 13.2% |
| CCCCCCCCC(=O)Nc1cc(C)ccc1OC | 1.01% |
| COc1ccc(NC(=O)COC(=O)CNC(=O)c2cc(OC)c(OC)c(OC)c2)cc1 | -13% |
| COc1ccccc1NC(=O)COC(=O)c1cc(C)nc2ccccc12 | 10.6% |
| NC(=O)C1CCCN(CCc2ccccc2)C1 (stereo not shown) | 3.16% |
| CS(=O)(=O)O.S=C=Nc1cccc(C2(N3CCCCC3)CCCCC2)c1 | -6.4% |
| CCc1ccc(NS(=O)(=O)c2ccc3c(c2)CCN3C(=O)CCC(=O)O)cc1 | -7.19% |
| CCCn1nnnc1NCc1cccc(OC)c1OCC | 1.32% |
| Cn1c(=O)[nH]c(=O)c2c1nc(SCCN1CCOCC1)n2CCCc1ccccc1 | -46.9% |
| Cc1ccc(CNC(=O)C2CNc3cc(C)ccc3O2)cc1 (stereo not shown) | -9.14% |
| CC(C)C[C@H](NC(=O)c1[nH]cnc1C(=O)N[C@@H](C)C(=O)OC(C)(C)C)C(=O)OCc1ccccc1 | 6.75% |
| COc1ccc(S(=O)(=O)N2CCC(CN3C(=O)c4cccc5cccc(c45)C3=O)CC2)cc1 | 7.22% |
| COc1ccc(NS(=O)(=O)c2ccc3c(c2)CCO3)cc1 | 3.31% |
| O=C(COC(=O)c1ccc(O)cc1O)Nc1ccc2ccccc2c1 | 8.28% |
| CC1(c2ccc3ccccc3c2)NC(=O)N(CC(=O)NCc2cccs2)C1=O (stereo not shown) | -0.455% |
| CC(=O)c1cccc(-c2ccc3c(=O)[nH]c(Nc4ccccc4)cc3c2)c1 | 0.596% |
| CC(=O)C1=C(NC(=O)c2ccc(F)cc2)CC2C1C2(C)C (stereo not shown) | 1.95% |
| CC1CC(C)CN(c2ccc([N+](=O)[O-])cc2-c2nn[nH]n2)C1 (stereo not shown) | -0.617% |
| Cc1ccc2c(c1)C1CN(C)CCC1N2C(=O)c1cccnc1Cl.Cl (stereo not shown) | 1.59% |
| CCCOc1ccc2ccccc2c1/C=N/n1cnnc1 | -14.7% |
| CCN(CC)CCOC(=O)c1ccc(NC(=O)C(C)NC(=O)C23CC4CC(CC(C4)C2)C3)cc1 (stereo not shown) | -4.41% |
| S=c1[nH]ncc2ccccc12 | 11% |

| Compound | hERG current change (%, negative = inhibition) at 10uM |
| --- | --- |
| COc1ccc(CNC(=O)C(=O)NCC2OCCN2S(=O)(=O)c2cccs2)cc1 (stereo not shown) | -4.34% |
| CCCn1c(N2CCN(C(=O)/C=C/C(=O)O)CC2)nc2ccccc21 | 9.76% |
| Cc1ccc2nc(N3CCN(Cc4nnnn4Cc4ccccc4)CC3)c(C#N)cc2c1 | 3.53% |
| Cc1ccc(-c2nc(C#N)c(NCc3ccco3)o2)cc1 | -0.709% |
| Cc1ccccc1-n1ncc(C(C)NC(=O)c2ccccc2)c1C (stereo not shown) | -4.33% |
| O=C(CCC(=O)N1CCOc2ccccc21)N1CCOCC1 | -5.85% |
| CS(=O)(=O)NCCSCc1c(F)cccc1Cl | 1.87% |
| CC(=O)Nc1ccc(/C=C/C(=O)c2ccc3c(c2)OCCO3)cc1 | -0.901% |
| COc1ccc(S(=O)(=O)N2CCCCCC2)cc1C(=O)OCc1cccc(OC)c1OC | 8.63% |
| COc1cc(OC)cc(C(=O)NC2CCN(Cc3nnnn3Cc3ccc(F)cc3)CC2)c1 | -3.98% |
| CCCn1c(C(C)Nc2nc(C)cs2)nc2cc(Cl)c(Cl)cc21 (stereo not shown) | -9.28% |
| CC(C)(C)NC(=O)CCSc1nnc(-c2ccco2)o1 | -2.3% |
| CCCN1CCC(N(CCc2ccccc2)Cc2ccccc2)CC1 | -72.2% |
| CCOC(=O)c1[nH]c(C(=O)O)c(CCN(CC)CC)c1C | 11.2% |
| Cc1c(C(=O)N2CCOCC2)c(S(=O)(=O)Nc2cccc(Br)c2)c(C)n1C | 11.2% |
| COc1ccc(Br)cc1/C=C/C(=O)NC(=S)Nc1ccc(CN2CCOCC2)cc1 | 23.2% |
| Cc1cc(NC(=O)CSc2nc3cc(Cl)ccc3o2)no1 | 17.7% |
| O=c1[nH]c(N2CCOCC2)nc2ccccc12 | 16.3% |
| CC(C)=CCCC(C)NC(=O)NC1CCCCC1 (stereo not shown) | -3.64% |
| CCOC(=O)c1cccc(S(=O)(=O)N2CCOCC2)c1 | 3.88% |
| O=S(=O)(Nc1ccccc1O)c1cccc2cccnc12 | 8.14% |
| CCOc1ccc(S(=O)(=O)NN=C2CCN(C(C)=O)CC2)cc1 | 10.7% |
